In PubChem BioAssay AID1721 (National Center for Advancing Translational Sciences (NCATS), 2009):
Hit rate of the full screen: of about 290,000 compounds, about 1,100 (0.38%) were called active. Inconclusive results, whose numbers are uncertain, are shown with a selection of clear calls. Calls follow the shape of the dose curve; as a rule, active = well fitted inhibition curve with a large enough effect; inconclusive = small, poorly fitted or top-dose-only effect, or another doubt; inactive = no such curve, though single readings can be large or run the other way. A potency beside an inconclusive call is a rough fit, not a confirmed value.

Each compound was assayed against Pyruvate kinase (Leishmania mexicana) (UniProt Q27686) (assay: qHTS Assay for Inhibitors of Leishmania Mexicana Pyruvate Kinase (LmPK)). Settings: purified LmPK, Kinase-Glo ATP luminescence, 1 h; activity change, negative = inhibition: at 57.5 µM (top of the series) unless noted.
Procedure, shortened: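 Pyruvate kinase activity monitored as ATP production (luciferase luminescence). Conditions: 0.1 nM enzyme, 0.5 mM PEP, 0.1 mM ADP, 1 h, RT; normalized against uninhibited and no-enzyme wells.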
% is scaled to controls: 0 for no effect and ±100 for the full control effect; potency is read from the fitted curve at half-maximal effect; tags tell the direction and shape of the fitted curve.

Sequence of UniProt Q27686 (Q27686 whole entry, looked up): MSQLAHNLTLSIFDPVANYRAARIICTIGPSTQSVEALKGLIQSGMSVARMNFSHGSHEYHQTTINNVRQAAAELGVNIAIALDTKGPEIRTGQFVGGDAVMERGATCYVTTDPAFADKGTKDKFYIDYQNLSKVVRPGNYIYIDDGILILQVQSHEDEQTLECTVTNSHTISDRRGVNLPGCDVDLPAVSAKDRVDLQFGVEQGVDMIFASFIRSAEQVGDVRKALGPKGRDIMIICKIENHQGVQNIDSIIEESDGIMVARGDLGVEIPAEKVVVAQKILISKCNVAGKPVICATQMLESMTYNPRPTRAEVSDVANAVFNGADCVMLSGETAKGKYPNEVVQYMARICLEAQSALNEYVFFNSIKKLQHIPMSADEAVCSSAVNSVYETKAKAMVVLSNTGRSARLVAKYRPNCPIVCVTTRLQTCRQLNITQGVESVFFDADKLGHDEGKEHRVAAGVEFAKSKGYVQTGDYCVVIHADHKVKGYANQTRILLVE

SMILES	Potency	activity change, negative = inhibition
Cc1ccc(C2CC2c2n[nH]c(=S)n2-c2ccc(Cl)cc2)cc1 (stereo unspecified)	inconclusive: 35.5 µM [falling, single point]	
O=c1c2cc3c(=O)n(-c4ccccc4O)c(=O)c3cc2c(=O)n1-c1ccccc1O		inactive: -5.32%
O=C(OCc1nc2ccccc2s1)c1ccccc1O	inconclusive: 15.8 µM [falling, partial curve]	
COc1ccc(/C=C2/SC(=S)N(CCCC(=O)N3CCN(C)CC3)C2=O)cc1	inconclusive: 14.1 µM [falling, partial curve]	
COC(=O)CSc1nc2cc(C)cc(C)c2cc1C#N		inactive: -6.44%
Cc1ccc(C=Nc2ccc(N(C)C)cc2)o1	inconclusive: 25.1 µM [falling, partial curve]	
O=C(/C=C/Nc1ccccc1F)c1ccc(Br)cc1	inconclusive: 10 µM [falling, partial curve]	
CCOc1ccc(CCNC(=O)C2CCCN(c3nn4c(=O)cc(C)nc4s3)C2)cc1OCC (stereo unspecified)		inactive: 0.172%
CCOC(=O)c1ccc2nc(NC(=O)c3ccco3)sc2c1	inconclusive: 14.1 µM [falling, partial curve]	
O=C(Nc1cccc(F)c1)c1ccc2ncsc2c1		inactive: 0.603%
O=C1C=CC(=O)C(C2=C3C(=O)N(CCc4ccccc4)CC(=O)N3CCC2)=C1	inconclusive: 11.2 µM [falling, partial curve]	
O=C(CCc1ccc(O)c(O)c1)N/N=C/c1ccc2c(c1)OCO2	inconclusive: 0.398 µM [falling, full curve]	
COCCn1c(SCC(=O)c2ccccc2)nc2c(c1=O)SCC2		inactive: 0.689% [at 11.5 µM]
Cc1ccc2nc(-c3ccc(O)c(O)c3)cn2c1	inconclusive: 3.55 µM [falling, full curve]	
O=c1ccc(N=Nc2ccccc2)ccc1O	inconclusive: 25.1 µM [falling, partial curve]	
COc1cc(OC)cc(-c2nc3ccccc3s2)c1	inconclusive: 28.2 µM [falling, single point]	
COc1cc(-c2n[nH]c(=S)n2-c2cc(C(F)(F)F)ccc2Cl)cc(OC)c1OC	inconclusive: 20 µM [falling, partial curve]	
Cc1cc(C(=O)O)ccc1-c1ccc(/C=C2\NC(=O)N(Cc3ccc(F)cc3)C2=O)o1		inactive: 3.52%
Cn1c(-c2ccc(C=O)s2)nc2ccccc21	inconclusive: 25.1 µM [falling, partial curve]	
COc1ccc(CCNC(=O)CN2C(=O)NC(Cc3c[nH]c4ccccc34)C2=O)cc1 (stereo unspecified)		inactive: 2.77%
C[C@@]12C(=O)N(c3cccc(F)c3)C(=O)N1[C@H](c1ccc(F)cc1)[C@@H]1C(=O)N(C3CCCCC3)C(=O)[C@@H]12		inactive: -3.4%
Oc1ccccc1/C=N/Nc1nc2ccccc2o1		inactive: -10.8%
CCOC(=O)c1sc(NC(=O)c2ccncc2)nc1C	inconclusive: 15.8 µM [falling, partial curve]	
O=C(N/N=C/c1ccc(N2CCOCC2)cc1)c1ccccn1	inconclusive: 15.8 µM [falling, partial curve]	
CCOc1ccc(NC(=O)Nc2ccccc2SC)cc1	active: 7.94 µM	
Cc1ccc(CSc2nc3ncccc3[nH]2)cc1	inconclusive: 11.2 µM [falling, partial curve]	

SMILES	Potency	activity change, negative = inhibition
Cc1ccc(OCC(=O)Oc2c(C)cccc2C)cc1		inactive: 2.47%
O=C(Nc1ccon1)c1cc2c(s1)CCCC2	inconclusive: 15.8 µM [falling, partial curve]	
S=c1[nH]nc(-c2ccc(Cl)cc2)n1Cc1ccccc1	active: 12.6 µM	
Oc1ccc(/C=N/Nc2nccnc2Cl)cc1	active: 5.01 µM	
O=S(=O)(c1ccccc1F)N1CCN(Cc2nc3ccccc3[nH]2)CC1	inconclusive: 7.08 µM [falling, single point]	
COc1ccc2nc(-c3ccc(N)cc3)[nH]c2c1	inconclusive: 17.8 µM [falling, partial curve]	
CC(C)c1ccc(C(=O)NNC(=O)C2C3CCC(C3)C2C(=O)O)cc1 (stereo unspecified)		inactive: -5.92%
Cc1ccc(NC(=S)N/N=C2\CC3CC=CC23)c(C)c1 (stereo unspecified)	inconclusive: 3.55 µM [falling, full curve]	
CC1(C)Cc2c(cnn2-c2cccc(F)c2)C(NC(=O)Cn2cccn2)C1 (stereo unspecified)		inactive: 0.434%
C=CCNC(=O)CN(Cc1ccccc1)S(=O)(=O)c1ccccc1		inactive: 1.55%
Nc1ccc2nc(N3CCOCC3)sc2c1	inconclusive: 28.2 µM [falling, single point]	
COC(=O)c1ccc(NCC(=O)c2ccccc2)cc1	inconclusive: 7.94 µM [falling, partial curve]	
CCCCOc1ccc(Nc2cc(Cl)ccc2C(=O)O)cn1	inconclusive: 28.2 µM [falling, single point]	
c1csc(-c2nc(CN3CCSCC3)cs2)c1	active: 15.8 µM	
O=C(c1ccccc1)c1cc(Cl)ccc1N1C(=O)C=CC1=O	inconclusive: 20 µM [falling, partial curve]	
O=C(Cn1ccc(C(F)(F)F)n1)Nc1ccc(S(=O)(=O)NCc2ccco2)cc1		inactive: 2.18%
Cc1ccc(/C(N)=N/OC(=O)c2cccs2)cc1	inconclusive: 15.8 µM [falling, partial curve]	
O=S1(=O)CCN(Cc2csc(-c3cccs3)n2)CC1	inconclusive: 25.1 µM [falling, partial curve]	
Cc1cc(/C=C2\SC(=S)NC2=O)cc(C)c1O	inconclusive: 28.2 µM [falling, single point]	
COc1cccc(C(=O)Nc2cccc(OCC(=O)O)c2)c1	active: 35.5 µM	
O=C(O)c1cccc2c1C(=O)c1ccccc1C2=O		inactive: -1.62%
CSc1nnc(NC(=O)C2CCCCC2)s1		inactive: 1.12%
Cc1ccc(NC(=O)Nc2nnc(Cc3ccc([N+](=O)[O-])cc3)s2)cc1		inactive: 0.845%
CCn1cc(Cl)c(C(=O)Nc2ccc3c(c2)OCCO3)n1	inconclusive: 25.1 µM [falling, partial curve]	
CCN(CC)P(=O)(NC(=O)C(Cl)(Cl)Cl)N(CC)CC.[Cl-].[Cl-].[Cl-].[Nd+3]	inconclusive: 39.8 µM [falling, single point]	
